# Experimental data reported in PubChem BioAssay AID651820 (National Center for Advancing Translational Sciences (NCATS), 2012).
# “And” between values parts separate entries of the source, which are not always exact repeats. Identical values can stand only once. Hit rate of the full screen: of about 340,000 compounds, about 12,000 (3.5%) were called active. Inconclusive results, whose numbers are uncertain, are shown with a selection of clear calls. Calls follow the shape of the dose curve; as a rule, active = well fitted inhibition curve with a large enough effect; inconclusive = small, poorly fitted or top-dose-only effect, or another doubt; inactive = no such curve, though single readings can be large or run the other way. Where the call is inconclusive, the potency comes from a doubtful curve fit.
# Experiment: qHTS Assay for Inhibitors of Hepatitis C Virus (HCV)
# Settings: Huh7.5.1 HCVcc-Cre (HCVcc is cell-culture hepatitis C virus) infection, luciferase reporter, 44 h; series mostly up to 41.8 µM
# In short: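 Reporter virus HCVcc-Cre (~0.5 moi) infects cells exposed to compound; seeding density 1,000 cells/well with 4 h settling beforehand. Luminescence, 15 sec read, taken 44 h post-infection following a 15 min RT substrate incubation.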
# Potency is read from the fitted curve at half-maximal effect; tags tell the direction and shape of the fitted curve.
row,Structure (SMILES),Potency
1,CC(C)Oc1cccc(C(=O)Nc2ccc(CN3CCOCC3)cc2)c1,"inconclusive: 12.6 µM [inhibitor, partial curve]"
2,COc1ccc(C(=O)Nc2ccncc2)c(OC)c1,"inconclusive: 31.6 µM [inhibitor, single point]"
3,CN(Cc1ccccc1)C(=O)c1[nH]cnc1C(=O)Nc1ccccc1,"inconclusive: 11.2 µM [inhibitor, partial curve]"
4,COc1cc(C(=O)NCCCNc2ccc([N+](=O)[O-])cc2)cc(OC)c1OC,inactive
5,COc1ccc(C(=O)Nc2nnc(-c3cccs3)s2)cc1,"inconclusive: 2.82 µM [inhibitor, single point]"
6,O=C1OCCN1C(=O)[C@H]1[C@H](c2ccc(Cl)cc2)C(c2cccc(Cl)c2)=NN1c1ccc(Br)cc1,"inconclusive: 10 µM [inhibitor, partial curve]"
7,CN(CCCCCCN(C)Cc1ccccc1O)Cc1ccccc1O,"inconclusive: 8.91 µM [inhibitor, partial curve]"
8,NC(=O)C12CCCC(Br)(CCC1)C2,inactive
9,Cc1ccc(/C=N/NC(=S)NC(C)C)o1,"inconclusive: 5.62 µM [inhibitor, single point]"
10,CCOC(=O)C1(Cc2ccccc2C)CCCN(C(=O)CCc2cccnc2)C1 (stereo not given),"inconclusive: 22.4 µM [inhibitor, single point]"
11,Cc1ccc(S(=O)(=O)N2c3cc(C)ccc3OCC2C(C)(C)C)cc1 (stereo not given),"inconclusive: 11.2 µM [inhibitor, partial curve]"
12,C/C(=N\NC(=O)c1cc(O)cc(O)c1)c1ccc(NC(=O)Cc2ccccc2)cc1,"inconclusive: 2 µM [inhibitor, single point]"
13,Cc1ccc(S(=O)(=O)N(CC(=O)N=Nc2c(O)[nH]c3ccccc23)c2cccc(C)c2)cc1,"inconclusive: 31.6 µM [inhibitor, single point]"
14,N=c1n(CC(=O)c2cccs2)c2ccccc2n1Cc1ccccc1,inactive
15,Cc1cc(C)nc(NS(=O)(=O)c2ccc(NC(=O)c3cc4c(=O)n5cccc(C)c5nc4n3C)cc2)n1,inactive
16,O=C(/C=C/c1ccccc1O)c1ccco1,inactive
17,CC(C)CCNC(=O)c1ccc(OC2CCN(S(=O)(=O)N(C)C)CC2)cc1,inactive
18,COc1cc(OC)c(OC)cc1CCC(C)NCCC(c1ccccc1)c1ccccc1 (stereo not given),active: 7.94 µM
19,Cc1ccc(-c2[nH]ncc2C(=O)c2ccccc2C)c(O)c1,inactive
20,CC(O)CNCCCCOc1ccc(OCc2ccccc2)cc1 (stereo not given),"inconclusive: 2.51 µM [inhibitor, partial curve]"
21,Cc1ccc(NC(=O)CN(C)C(=O)Cc2c[nH]c3ccccc23)cc1,"inconclusive: 2.24 µM [inhibitor, partial curve]"
22,Cc1cc(NC(=O)COC(=O)C2CC(=O)N(c3ccc(Cl)cc3)C2)no1 (stereo not given),inactive
23,COC(=O)c1ccccc1NC(=O)CSc1nnnn1-c1ccc(C)cc1C,inactive

row,Structure (SMILES),Potency
1,O=C(Nc1ccc(Cl)cc1)c1cc(S(=O)(=O)N2CCOCC2)cs1,active: 5.62 µM
2,O=C(C1CCCN(S(=O)(=O)c2cccc3nonc23)C1)N1CCN(c2ccccc2Cl)CC1 (stereo not given),"inconclusive: 7.08 µM [inhibitor, partial curve, poor fit]"
3,CCC(=O)N1CCN(c2ccccc2NC(=O)COc2cccc(C)c2)CC1,"inconclusive: 3.16 µM [inhibitor, full curve, poor fit]"
4,CSCCC(NC(=O)/C(=C/c1ccc(F)cc1)NC(C)=O)C(=O)O (stereo not given),inactive
5,Cc1ccc(Nc2cc(C)nc(N3CCOCC3)n2)cc1,"inconclusive: 31.6 µM [inhibitor, single point]"
6,Cc1cc(Nc2cccc(Br)c2)c2ccccc2n1,active: 7.08 µM
7,CN1CCC(N(C)S(=O)(=O)c2ccc(NC(=O)c3ccc(S(=O)(=O)N(C)C)cc3)cc2)CC1,"inconclusive: 31.6 µM [inhibitor, single point]"
8,CC(=O)N1c2ccc(S(=O)(=O)N3CCC(C(=O)NCCc4ccc(Cl)cc4)CC3)cc2CC1C (stereo not given),active: 10 µM
9,COc1ccc(CCC(C)NC(=O)Cc2ccc(OC)c(OC)c2)c(OC)c1 (stereo not given),active: 7.08 µM
10,CC(OC(=O)CCN=C1NS(=O)(=O)c2ccccc21)C(=O)Nc1ccc(S(N)(=O)=O)cc1 (stereo not given),"inconclusive: 5.62 µM [inhibitor, single point]"
11,COCCCNC(=O)c1ccc(Cn2c(=O)c3ccccc3n(Cc3ccccc3C)c2=O)cc1,"inconclusive: 10 µM [inhibitor, partial curve]"
12,c1ccc(-c2csc3ncnc(NCc4ccccn4)c23)cc1,active: 10 µM
13,C[C@]12c3[nH]c4cc(-c5ccco5)ccc4c3CCN1C(=O)[C@@H](CC(=O)NCc1cccc(C(F)(F)F)c1)C[C@@H]2C(=O)N1CCCCC1,"inconclusive: 20 µM [inhibitor, single point]"
14,COc1ccc(-c2csc(N3CCC(C(N)=O)(N4CCCCC4)CC3)n2)cc1,"inconclusive: 14.1 µM [inhibitor, single point]"
15,Cc1ccc(S(=O)(=O)N=Nc2c(O)[nH]c3ccccc23)cc1,inactive
16,Cc1nc2ccccc2cc1OCc1ccc(F)cc1,"inconclusive: 6.31 µM [inhibitor, partial curve]"
17,Cc1cc(C)n2nc(SCC(=O)c3ccccc3)nc2n1,"inactive and inconclusive: 5.62 µM [inhibitor, single point]"
18,Cc1ccc(C2(C)NC(=O)N(CC(=O)Nc3ccccc3N3CCCC3)C2=O)cc1 (stereo not given),"inconclusive: 31.6 µM [inhibitor, single point]"
19,CCn1c(SCC(=O)N2CCCc3ccccc32)nc2cccnc21,"inconclusive: 31.6 µM [inhibitor, single point]"
20,CCOC(=O)c1ccc(NC(=S)N2CCSC2c2ccc(Br)cc2)cc1 (stereo not given),"inconclusive: 12.6 µM [inhibitor, single point]"
21,Cc1ccc(NC(=O)CNC(=O)N2CC(=O)Nc3ccccc32)cc1F,inactive
22,COc1ccc2c(COC(=O)c3cccc(S(=O)(=O)NCC(C)C)c3)cc(=O)oc2c1,inactive
